Measurements from PubChem BioAssay AID624418 (National Center for Advancing Translational Sciences (NCATS), 2012).
Screen size: about 410,000 compounds; about 530 (0.13%) were called active. The inconclusive results got no clear call from the source; some entries with a clear call stand among them for comparison. Calls follow the shape of the dose curve; as a rule, active = well fitted inhibition curve with a large enough effect; inconclusive = small, poorly fitted or top-dose-only effect, or another doubt; inactive = no such curve, though single readings can be large or run the other way. Potencies of inconclusive entries are doubtful fits and often do not repeat.

Test: qHTS of GLP-1 Receptor Inverse Agonists: Cytotox Screen
Details: HEK293 cAMP-luciferase reporter cells, luminescence, 24 h; activity change, negative = inhibition: at 38.3 µM (top of the series) unless noted
Method in brief: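 Quantitative HTS format, 1536 wells, 200 cells/uL seeded. Compounds: 23 nL, 24 h, 37 °C. Detection: luciferase reagent, luminescence at 12 min RT; decreased signal taken as cytotoxic.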
% is scaled to controls: 0 for no effect and ±100 for the full control effect; potency is read from the fitted curve at half-maximal effect.

| SMILES | Potency | activity change, negative = inhibition |
| --- | --- | --- |
| CCn1cc2nc(SCC(=O)Nc3ccccc3C(F)(F)F)n(Cc3ccc(C)cc3)c(=O)c2n1 | inconclusive: 12.6 µM [inhibitor, single point] | – |
| Cc1ccc(NC(=O)CN(C)C(=O)COc2cccc3cccnc23)cc1 | inconclusive: 31.6 µM [inhibitor, partial curve, poor fit] | – |
| NNc1ncnc2c1cnn2-c1ccccc1 | inconclusive: 5.62 µM [inhibitor, full curve, poor fit] | – |
| Cc1cccc(C)c1OCC(O)Cn1c2ccccc2c2ccccc21 (stereo not given) | inconclusive: 14.1 µM [inhibitor, single point] | – |
| CCOC(=O)c1c(C)oc2ncnc(Nc3ccc(OC)c(OC)c3)c12 | – | inactive: -1.61% |
| CCCCCCN1C[C@H](n2cc(-c3ccc(F)cc3)nn2)[C@@H](O)C[C@@H]1c1ccc(OC)cc1 | – | inactive: 4.01% |
| CC(/C=C/c1ccccc1)=N\NC(=O)c1ccc2c(c1)OCCO2 | inconclusive: 6.31 µM [inhibitor, partial curve, poor fit] | – |
| O=C(CSc1nnc(-c2ccc3c(c2)OCO3)o1)Nc1ncc(C(F)(F)F)cc1Cl | – | inactive: 3.05% |
| O=C(NCCc1ccc(Cl)cc1Cl)c1cc([N+](=O)[O-])c[nH]c1=O | inconclusive: 28.2 µM [inhibitor, single point] | – |
| CC1CCN(CC(=O)Nc2ccc(S(=O)(=O)N3CCC(C)CC3)cc2)CC1 | inconclusive: 20 µM [inhibitor, single point] | – |
| COc1cccc(CN2C(=O)C3(C(C#N)=C(N)OC4=C3C(=O)CCC4)c3ccccc32)c1 (stereo not given) | inconclusive: 20 µM [inhibitor, partial curve, poor fit] | – |
| COc1ccc(OC)c(Cc2nnc(CCC(=O)N3CCCCC3c3nccs3)o2)c1 (stereo not given) | inconclusive: 31.6 µM [inhibitor, single point] | – |
| CN(C)CCN(Cc1cccs1)S(=O)(=O)c1csc(C(N)=O)c1 | – | inactive: -2.29% |
| Cc1cccc(-c2nnc(NC(=O)c3cccs3)s2)c1 | inconclusive: 0.251 µM [inhibitor, full curve, poor fit] | – |
| C/C1=C\CCC2C(/C=C(\C)CC1)OC(=O)C2CN1CCCCC1 (stereo not given) | inconclusive: 28.2 µM [inhibitor, single point] | – |
| COc1cccc2c(SCC(=O)N/N=C/c3ccccc3)cc(C)nc12 | inconclusive: 31.6 µM [inhibitor, single point] | – |
| CCc1ccc(OCC(=O)NC(NC(=S)Nc2ccc(Cl)cc2)C(Cl)(Cl)Cl)cc1 (stereo not given) | inconclusive: 10 µM [inhibitor, partial curve, poor fit] | – |
| O=C(CCS(=O)(=O)c1ccccc1)N(CCCN1CCOCC1)c1nc2ccc(F)cc2s1 | inconclusive: 28.2 µM [inhibitor, single point] | – |
| O=C(c1ccc(S(=O)(=O)Cc2cc(F)ccc2F)c([N+](=O)[O-])c1)N1CCCC1 | inconclusive: 17.8 µM [inhibitor, partial curve, poor fit] | – |
| COc1ccc(/C=N/NC(=O)c2ccc(COc3ccccc3Cl)o2)c(OC)c1C | inconclusive: 28.2 µM [inhibitor, single point] | – |
| Cc1ccc(-c2nc(CS(=O)CC(=O)N3CCN(c4ccc(Cl)cc4)CC3)c(C)o2)cc1 (stereo not given) | inconclusive: 28.2 µM [inhibitor, single point] | – |
| CCN(CC)CCOC(=O)c1ccc(NC(=O)c2cn(-c3ccccc3)nc2-c2cccs2)cc1 | inconclusive: 10 µM [inhibitor, single point] | – |

| SMILES | Potency | activity change, negative = inhibition |
| --- | --- | --- |
| O=C(Nc1ccccc1)c1cc([N+](=O)[O-])ccc1NCc1cccnc1 | inconclusive: 14.1 µM [inhibitor, single point] | – |
| CCOc1ccccc1NC(=O)c1c(NCc2sccc2C)sc2c1CCCCC2 | – | inactive: -1.95% |
| CCO[C@@H]1OC(C(=O)N2CCN(Cc3ccc4c(c3)OCO4)CC2)=C[C@H](c2ccc(C(F)(F)F)cc2)[C@H]1CCCO | inconclusive: 28.2 µM [inhibitor, single point] | – |
| CC(=O)OCC(=O)N1CCN(c2ccc([N+](=O)[O-])cc2)CC1 | inconclusive: 10 µM [inhibitor, partial curve, poor fit] | – |
| CCCN1C(=O)C2(c3ccccc31)c1c(oc3ccccc3c1=O)C(=O)N2CCO (stereo not given) | – | inactive: -4.31% |
| CCOC(=O)c1ccc(S(=O)(=O)N2CCN(C3CC(=O)N(c4ccc(OC)cc4)C3=O)CC2)cc1 (stereo not given) | – | inactive: -3.13% |
| O=c1cc(C(O)C[N+](=O)[O-])occ1OCc1ccccc1 (stereo not given) | inconclusive: 31.6 µM [inhibitor, single point] | – |
| CCNC(=O)Cc1ccc(NC(=O)N2CCCCc3ccccc32)cc1 | – | inactive: 7.11% |
| Cc1ccccc1NC(=S)N(Cc1cccs1)C1CCCCC1 | inconclusive: 12.6 µM [inhibitor, single point] | – |
| CCCc1nc2oc3c(NCCN(C)C)ncnc3c2c2c1CCCC2 | inconclusive: 14.1 µM [inhibitor, single point] | – |
| NC(=S)N=Nc1c(O)[nH]c2cc(F)c(F)cc12 | inconclusive: 28.2 µM [inhibitor, single point] | – |
| CN(C(=O)/C(N=Nc1cccc(C(F)(F)F)c1)=C(\O)C(F)(F)F)c1ccccc1 | inconclusive: 22.4 µM [inhibitor, single point] | – |
| O=C(CNC(=O)c1ccccc1)N/N=C/c1ccc([N+](=O)[O-])o1 | inconclusive: 15.8 µM [inhibitor, partial curve, poor fit] | – |
| COc1ccc(CC(N)c2csc(NC(=O)c3cc(C(C)(C)C)nn3Cc3ccccc3)n2)cc1 (stereo not given) | inconclusive: 10 µM [inhibitor, partial curve, poor fit] | – |
| CCC(=O)N1CCc2cc(S(=O)(=O)CCC(=O)NCc3ccccc3OC)ccc21 | inactive | – |
| COc1ccc(/C=C/C(=O)NC(=S)N2CCOCC2)cc1 | inconclusive: 10 µM [inhibitor, partial curve, poor fit] | – |
| O=C(CSc1cn(CC(=O)N2CCCCC2)c2ccccc12)NCC1CCCO1 (stereo not given) | inconclusive: 2.51 µM [inhibitor, partial curve, poor fit] | – |
| O=C(NN=C1CCCC1)c1[nH]c2ccc(Cl)cc2c1-c1ccccc1 | inconclusive: 7.08 µM [inhibitor, partial curve, poor fit] | – |
| CC(=O)NS(=O)(=O)c1ccc(NC(=S)NC(=O)c2ccco2)cc1 | – | inactive: -13.6% |
| Cc1ccc(NCc2nc3ccccc3n2CCOc2ccccc2)cc1 | inconclusive: 28.2 µM [inhibitor, single point] | – |
| Clc1ccc(-c2nnc(NC3=NCCCCC3)o2)cc1 | – | inactive: -3.79% |
| CC1CCN(c2ccccc2NC(=S)NC(=O)c2cccs2)CC1 | inconclusive: 11.2 µM [inhibitor, partial curve] | – |

| SMILES | Potency | activity change, negative = inhibition |
| --- | --- | --- |
| CC(C)(C)NC(=S)N/N=C/c1cccnc1 | inconclusive: 11.2 µM [inhibitor, single point] | – |
| O=C1/C(=C\c2ccco2)CCC/C1=C\c1ccco1 | inconclusive: 28.2 µM [inhibitor, single point] | – |
| O=C(Nc1cccc(-c2cc3ccccc3oc2=O)c1)c1ccc(Br)o1 | – | inactive: 12.1% |
| O=C(CC1c2ccccc2Oc2ccccc21)Nc1ccccc1C(F)(F)F | inconclusive: 7.94 µM [inhibitor, partial curve, poor fit] | – |
| Cc1ccc(OCCn2cc(C(=S)N3CCCC3)c3ccccc32)cc1C | inconclusive: 28.2 µM [inhibitor, single point] | – |
| CC1(C(=O)Nc2ccc(Cl)c(Cl)c2)CCN1C(=O)CC1CCCC1 (stereo not given) | – | inactive: 1.43% |
| CCCCCC(=O)N(O)C1CC(=O)N(c2ccccc2)C1=O (stereo not given) | – | inactive: -1.11% |
| COc1ccccc1/C=C/C=N\N1CCN(Cc2ccccc2Cl)CC1 | inconclusive: 28.2 µM [inhibitor, single point] | – |
| O=C(Nc1cccc(Cl)c1Cl)c1ccc2c(c1)N(Cc1cccc(Cl)c1)C(=O)c1ccccc1S2(=O)=O | – | inactive: -9.46% |
| CC(C)c1ccc(NC(=O)CN2C(=O)NC3(CCCCCCC3)C2=O)cc1 | inconclusive: 31.6 µM [inhibitor, partial curve, poor fit] | – |
| COc1ccc(/C=N/Nc2nncn2N)cc1Br | inconclusive: 11.2 µM [inhibitor, single point] | – |
| O=C(CCl)Nc1nc(-c2ccco2)c(-c2ccco2)s1 | – | inactive: -1.29% |
| CCNc1nc(NCC)nc(N(C)N)n1 | inconclusive: 11.2 µM [inhibitor, partial curve, poor fit] | – |
| CN(Cc1cc(Cl)cc(Cl)c1)CC(C(=O)c1ccccc1)c1ccccc1 (stereo not given) | inconclusive: 11.2 µM [inhibitor, single point] | – |
| CCOC(=O)N1CCC(NC(=O)c2ccc3c(c2)N=C(C)c2c(C)ccc(C)c2S3)CC1 | inconclusive: 2.51 µM [inhibitor, partial curve, poor fit] | – |
| Cc1ccc(COc2ccc(Br)cc2/C=N/O)cc1 | inconclusive: 12.6 µM [inhibitor, single point] | – |
| COC(=O)c1ccc(CNC(=O)c2ccccc2C(=O)NCC2(CBr)OCCO2)cc1 | – | inactive: -1.97% |
| COc1ccc(NC(=O)c2sccc2C)cn1 | – | inactive: 10.9% [at 0.307 µM] |
| CC(NC(=S)Nc1cccc(C(F)(F)F)c1)C(C)(C)C (stereo not given) | inconclusive: 10 µM [inhibitor, single point] | – |
| Cc1ncc(CN2CCCC(C(=O)Nc3ccc(-c4cccc(F)c4)cc3)C2)s1 (stereo not given) | inconclusive: 28.2 µM [inhibitor, single point] | – |
| Cc1ccccc1C(=O)Nc1ccccc1-c1nnn(CC(=O)Nc2ccc3c(c2)OCCO3)n1 | inconclusive: 1 µM [inhibitor, full curve, poor fit] | – |
